Molecules are shown by their SMILES. The campaign covered roughly 48,000 compounds. About 120 (0.25%) were called active. Roughly 4% stayed inconclusive and do not appear here. The call rests on the fitted dose curve; in most records, active means well fitted activation curve with a large enough effect; inconclusive means small, poorly fitted or top-dose-only effect, or another doubt; inactive means no such curve, though single readings can be large or run the other way. Some of the results follow.

The nature of this test: Primary qHTS for Identification of Small Molecule Activators of Huntingtin-Antisense Promoter Activity. Further: nearly all actives have a fitted effect of over 55% in size. To be noted: HEK293 HTT-AS promoter firefly luciferase reporter, 24 h; series mostly up to 57.5 µM; activity change, positive = activation: at the top concentration. The method, boiled down:
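HEK293 Fluc reporter, 2,500 cells/well, 24 h pre-culture; cpds up to 57.5 uM final, 24 h 37 degrees C; Dual-Glo, 10 min RT; normalized vehicle = 0%, zero RLU = -100%.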
(In general: qHTS replaces the single test concentration by a dilution series.)
Turning to `COc1cc(CCNC(=O)c2ccc3c(c2)c(C)c(C)n3Cc2cccc(C)c2)cc(OC)c1OC`, the “activity change, positive = activation” value is inactive: -23.8%.

For the compound `COCCCn1c(=N)c(C(=O)NCc2cccnc2)cc2c(=O)n3cc(C)ccc3nc21`, the “activity change, positive = activation” value was inactive: -2.26%.

In the case of `COc1ccc(OC)c(Nc2ncnc3c2nc2n3CCCC2)c1`, the “activity change, positive = activation” value was inactive: 9.06%.

Consider `CCOc1ccc(NC(=O)c2nc3nc(C)cc(C(F)F)n3n2)cc1`, for which the “activity change, positive = activation” value is inactive: 8.24%.

With `Cc1cc(C)c2c(-n3cccc3)c(C(=O)NCc3cccc(F)c3)sc2n1`, the “activity change, positive = activation” value was inactive: -1.9%.

In the case of `CCc1nnc(SCc2ccc(OC)cc2)c2cc3sc(C)cc3n12`, the “activity change, positive = activation” value is inactive: -2.68%.

In the case of `COc1cc(OC)c(NC(=O)c2nn(-c3ccc(C)cc3)c(=O)c3c2c2ccccc2n3C)cc1Cl`, the “activity change, positive = activation” value is inactive: 3.81%.

Regarding `O=C(NCc1ccccc1Cl)c1ccc(Cn2c(SCc3ccccc3)nc3cccnc32)cc1`, the “activity change, positive = activation” value was inactive: -1.97%.

On to `Cc1c(C)n(Cc2ccccc2)c2ccc(C(=O)OCCN(C)C)cc12`, for which the “activity change, positive = activation” value is inactive: -3.25%.

Regarding `CCc1ccccc1NC(=O)c1ccc2c(SCC(=O)O)c3c(nc2c1)CCC3`, the “activity change, positive = activation” value was inactive: 5.03%.

Turning to `Cc1ccccc1Cn1c2ccccc2c2cnn(CC(=O)NCC(C)c3ccccc3)c(=O)c21` (centres undefined), the “activity change, positive = activation” value is inactive: -3.58%.

For the compound `CSc1ccc(CCNC(=O)C(C)n2nc(C)c3sc4ccccc4c3c2=O)cc1` (centres undefined), the “activity change, positive = activation” value is inactive: -12.1%.

With `CCOc1ccc(C2c3c(oc4ccc(C)cc4c3=O)C(=O)N2CCCN(C)C)cc1` (centres undefined), the “activity change, positive = activation” value is inactive: 18.6%.

In the case of `Cc1ccc(NC(=O)Cn2c(=O)n(CCCCC(=O)NCCc3ccc(Cl)cc3)c(=O)c3ccccc32)cc1`, the “activity change, positive = activation” value was inactive: -0.784%.

In the case of `COc1ccc(CCNC(=O)c2oc(=O)c3ccccc3c2-c2ccccc2)cc1OC`, the “activity change, positive = activation” value is inactive: -16.7%.

`COc1ccc(CNC(=O)CN2C(=O)COc3ccc(S(=O)(=O)N4CCC(C)CC4)cc32)cc1`: the “activity change, positive = activation” value was inactive: -16.7%.

Regarding `COc1cc(NC(=O)CCS(=O)(=O)c2nc(-c3ccc4c(c3)OCO4)cc(C(F)(F)F)n2)cc(OC)c1OC`, the “activity change, positive = activation” value is inactive: -14.6%.

For the compound `COC(=O)c1sc(N2C(=O)c3oc4ccccc4c(=O)c3C2c2ccc(O)cc2)nc1C` (centres undefined), the activity change, positive = activation is inactive: -9.29% [at 11.5 µM, percent change from vehicle, -100% = no light].

`CCc1c(C)sc2c1CCN(C(=O)Nc1cc(C)cc(C)c1)C2c1ccccc1` (centres undefined): the “activity change, positive = activation” value is inactive: -6%.

Turning to `COCCCNC(=O)CSc1nc2cc3c(cc2c(=O)n1CCCCCC(=O)NCc1ccc2c(c1)OCO2)OCO3`, the “activity change, positive = activation” value was inactive: -1.9%.

Consider `CCCCNC(=O)C1CCC(CNS(=O)(=O)c2ccc(C)cc2)CC1` (centres undefined), for which the “activity change, positive = activation” value is inactive: -6.9%.

On to `COc1ccccc1NC(=O)C1CCN(S(=O)(=O)c2ccc3[nH]c4c(c3c2)CCCCC4)CC1`, for which the “activity change, positive = activation” value is inactive: -31.4%.

As for `CCN1CCN(C(c2ccc(SC)cc2)c2c(O)cc(C)n(Cc3ccco3)c2=O)CC1` (centres undefined), the “activity change, positive = activation” value is inactive: -0.785%.

Turning to `Cc1cc(C)c(NC(=O)CCn2c(=O)c3cccn3c3ccccc32)c(C)c1`, the “activity change, positive = activation” value is inactive: -10.5%.
